Measurements reported in PubChem BioAssay AID463173 (ICCB-Longwood Screening Facility, Harvard Medical School, 2010).
Among all 52,000 compounds or so, about 4,300 (8.3%) were called active. Rule as the data show it: active = survival mostly below about 52% (no sharp cut-off); inactive = mostly above about 56%. Some of the results follow.

system: DeltatarO mutant; assay: growth inhibition of S. aureus wild type versus tarO mutant, primary screen, teichoic acid synthesis inhibitors, RN4220, OD600 (AID 463173); settings: OD600, 18 h, active compounds read low, screened at 18.75 µg/mL (by protocol)

SMILES | survival
Cc1cc(C)c(NC(=O)C(C)n2nnc3sc(-c4ccccc4)cc3c2=O)c(C)c1 (configuration not stated) | inactive: 101%
CCOC(=O)C1CCN(C(c2ccc(F)cc2)c2sc3nc(-c4ccco4)nn3c2O)CC1 (configuration not stated) | inactive: 70%
CCOc1cc(CNCCSc2nnnn2-c2ccccc2)ccc1OC | inactive: 60%
CCOC(=O)C1(c2ccccc2)NC(c2ccc(O)c(OC)c2)C2C(=O)N(C)C(=O)C21 (configuration not stated) | inactive: 81%
CCOc1ccc(C(=O)c2cn(CC(=O)Nc3cc(OC)ccc3OC)c3cc(OC)c(OC)cc3c2=O)cc1 | inactive: 70%
CCCn1c2c(c(O)c(C(=O)Nc3ccccc3F)c1=O)CCCC2 | inactive: 93%
COc1ccc(-c2ccc(=O)n(CC(=O)NCCc3ccccc3)n2)cc1 | inactive: 70%
CCc1ccc(OCCSc2nc(-c3cccc(C)c3)nc3cc(=O)[nH]n23)cc1 | inactive: 75%
CC(C)(C)C/C(=N/O)c1ccccc1 | inactive: 89%
COc1ccc(NC(=O)CCSc2nc(-c3ccco3)cc(C(F)(F)F)n2)cc1OC | inactive: 50%
O=C(CN1C(=O)C2(SCC(=O)N2c2ccc(F)cc2)c2ccccc21)NCCc1ccccc1 (configuration not stated) | inactive: 85%
CC(=O)Nc1ccc(C(=O)CSc2nnc3ccc4ccccc4n23)cc1 | inactive: 75%
c1ccc2c(c1)nc(N1CCOCC1)c1ccccc12 | inactive: 86%
O=S(=O)(NCc1ccc(Cl)cc1)c1ccc(N2CCCCS2(=O)=O)cc1 | inactive: 113%
CCOc1ccc(NC(=O)NCCN2CCN(c3ccccc3F)CC2)cc1 | inactive: 87%
CSc1ccc(CCNC(=O)c2cc3c(-c4ccccc4F)nn(C)c3s2)cc1 | inactive: 55%
CCOC(=O)c1cccc(NC(=O)c2cc3cc4ccc(C)cc4nc3s2)c1 | inactive: 96%
Nc1c(C(=O)NCc2ccccc2)nnn1Cc1cccc(Br)c1 | inactive: 67%
CCOC(=O)c1cc(-c2ccc(F)cc2)n(CCC(=O)NC2CCCCC2)c1C | inactive: 91%

SMILES | survival
O=C(N1CCCC1)N1c2ccccc2Sc2ccccc21 | inactive: 111%
Cc1cc(C)cc(Nc2nc3c(S(=O)(=O)c4cccc(Cl)c4)nnn3c3ccsc23)c1 | inactive: 42%
Cc1nc2nc[nH]n2c(=O)c1NC(=O)CC12CC3CC(CC(C3)C1)C2 | inactive: 101%
O=C(O)c1cccnc1N1CCOCC1 | inactive: 84%
Cc1ccc(C)c(NC(=O)CCCN2C(=O)C(c3ccccc3)Oc3cccnc32)c1 (configuration not stated) | inactive: 85%
O=C(CNC(=O)c1ccc(Cl)cc1)OCc1cc(=O)n2nc(C3CCCCC3)sc2n1 | inactive: 90%
COC(=O)CN(c1ccccc1)S(=O)(=O)c1ccc(OC)cc1 | inactive: 97%
Nc1c(C(=O)Nc2ccc(Br)cc2)sc2nc(-c3ccncc3)ccc12 | inactive: 74%
COc1cccc(NC(=O)c2ccc(-c3nc(COc4ccc(C)cc4)c(C)o3)cc2)c1 | inactive: 83%
Cc1ccc2c(c1)c1c(c(=O)n(-c3ccccc3C)c(=O)n1CC(=O)NCC1CCCO1)n2C (configuration not stated) | inactive: 95%
Cc1cc(=O)n2nc(N3CCC(C(=O)Nc4ccc(Br)cc4F)CC3)sc2n1 | inactive: 94%
CCCCSCCCNC(=O)C1CCN(Cc2nc(-c3cccc(Br)c3)oc2C)CC1 | inactive: 68%
COc1ccccc1CNC(=O)c1ccc(N2CCCC2)c(NC(=O)NCc2ccc(F)cc2)c1 | inactive: 112%
CCOC(=O)C1=C(CN(CC)Cc2ccccc2)NC(=O)NC1c1ccc(OC(C)C)cc1 (configuration not stated) | inactive: 74%
CCOc1ccc(CCNC(=O)c2[nH]c3cc(OC)ccc3c2Sc2ccccc2)cc1OCC | inactive: 75%
CC(C)CN(CCCNC(=O)CN1N=C(c2ccccc2)CCC1=O)CC(C)C | inactive: 130%
CC(=O)c1cc2c(cc1NC(=O)c1cnn(-c3ccc(C)cc3)c1-n1cccc1)OCO2 | inactive: 72%
COc1ccc(N2CCN(c3ccc(-c4nc(-c5cccc(C)c5)no4)cc3[N+](=O)[O-])CC2)cc1 | inactive: 75%
O=C(NCCC1=CCCCC1)c1ccc2c(c1)N(Cc1cccc(Cl)c1)C(=O)c1ccccc1S2(=O)=O | inactive: 71%

SMILES | survival
Cc1cc(C)c(NC(=O)CSc2nc(-c3ccc(F)cc3)nc3c2Cc2c(CO)cnc(C)c2O3)c(C)c1 | inactive: 60%
O=c1c2c([nH]c3ccccc13)CCCCC2 | inactive: 86%
O=C(O)CCC(=O)CCN1CCCCC1 | inactive: 64%
Cc1ccccc1CSc1nc2cccnc2n1Cc1ccc(C(=O)NC2CC2)cc1 | inactive: 79%
CCOc1ccc(Nc2nc(C)c(NC(=O)c3cccc(OC)c3)c(Nc3ccc(OCC)cc3)n2)cc1 | inactive: 112%
CCOC(=O)c1ccccc1NC(=O)CSc1cn(CC(=O)N2CCOCC2)c2ccccc12 | inactive: 102%
COc1ccc(CNC(=O)C2CCC(CNS(=O)(=O)c3cccs3)CC2)cc1 (configuration not stated) | inactive: 71%
Cc1ccc(N2CCN(S(=O)(=O)c3nnc(NC(=O)c4ccc(C(C)C)cc4)s3)CC2)cc1 | active: 42%
CCOc1ccc(NC(=O)Cn2c(=O)cc(C)c3c(C)nn(-c4cccc(Cl)c4C)c32)cc1 | inactive: 124%
CCOc1ccc(S(=O)(=O)c2cn(Cc3ccc(OC)cc3)c3ccc(F)cc3c2=O)cc1 | inactive: 65%
CCOc1ccc(C(=O)N2CCN(CCc3ccccn3)CC2)cc1 | inactive: 59%
Cc1nn(-c2ccc(N3CCCC3)nn2)c(C)c1CCC(=O)NCc1ccc(OC(C)C)cc1 | inactive: 80%
Cn1c(=O)[nH]c(=O)c2c1nc1n2CCN1c1ccccc1 | inactive: 194%
CC(C)c1ccc(NC(=O)CCNS(=O)(=O)c2ccc3c(c2)CCCC(=O)N3)cc1 | inactive: 77%
CCOC(=O)CC(NC(=O)CCc1c(C)nc2ncnn2c1C)c1ccc(OC(C)C)cc1 (configuration not stated) | inactive: 114%
Cc1ccc(Cl)cc1-n1ncc2c(N3CCC(C)CC3)ncnc21 | inactive: 128%
Cc1ccc(CNC(=O)CN2CCN(Cc3ccc(F)cc3)C2=O)cc1 | inactive: 95%
O=C(NCc1ccccc1)C1CCN(S(=O)(=O)c2ccc3[nH]c(=O)ccc3c2)CC1 | inactive: 70%
Cc1cccc(N(C)S(=O)(=O)c2c(C(=O)N3CCCCCC3)c(C)n(C)c2C)c1 | inactive: 75%
